In US20250333515A1:

Key:
[1] = target: biotinylated recombinant human CLL-1 extracellular domain protein, isoform with glutamine at amino acid position 244 (human) (UniProt Q5QGZ9); assay: BLItz, 1:1 model (Q244 per FIG. 12B)
[2] = target: biotinylated recombinant human CLL-1 extracellular domain protein, isoform with lysine at amino acid position 244 (human) (UniProt Q5QGZ9); assay: Exp 1 (= Octet, CLL-1-K244 of FIG. 12B)
[3] = target: biotinylated recombinant human CLL-1 extracellular domain protein, isoform with glutamine at amino acid position 244 (human) (UniProt Q5QGZ9); assay: Exp 2 (= Blitz, CLL-1-Q244 of FIG. 12B)

Kd [1] [nM]	koff [1] [s⁻¹]	kon [1] [M⁻¹ s⁻¹]	Kd [2] [nM]	Kd [3] [nM]	Binder
20	0.0015	72000	5.37	20	Anti-CLL-1 Binder Clone 5 (scFv, not shown: small tags and cut ends) scFv: [no letters for about 100 residues]GGGGSGGGGSGGGGSQVQLVESGGGVVQPGRSLRLSCAASGFTFSSYGMHWVRQAPGKGLEWVAFISHDGSNKYYADSVKGRSTISRDNSKSTLFLQMNSLRDEDTAVYFCAREGQLTTSWDFFDYWGHGTLVTVSS
19	0.0011	59000	2.32	19	Anti-CLL-1 Binder Clone 39 (scFv, not shown: small tags and cut ends) scFv: [no letters for about 100 residues]GGGGSGGGGSGGGGSQVQLVQSGAEVKKPGASVKVSCKASGYTFTGYYMHWVRQAPGQGLEWMGWMNPSSGNTGYAHEFQGRVTMTRNTSTGTAYMELSGLRSEDTAVYYCARGDTGDSFDYWGQGTLVTVSS
